Experimental data: PubChem BioAssay AID485294 (National Center for Advancing Translational Sciences (NCATS), 2010)
In all, about 370,000 compounds went through this assay and about 150 (0.041%) were called active. The shares of active, inactive and inconclusive entries below differ from those in the screen. The call rests on the fitted dose curve; in most records, active means well fitted inhibition curve with a large enough effect; inconclusive means small, poorly fitted or top-dose-only effect; inactive means flat fitted curve, though single readings scatter. No potency is given beside an inconclusive call; the fits are too rough.

Each molecule was assayed against Beta-lactamase (Escherichia coli (strain K12)) (UniProt P00811) (assay: qHTS Inhibitors of AmpC Beta-Lactamase (assay with detergent)). Conditions: AmpC hydrolysis of nitrocefin, absorbance 480 nm, 0.01% Triton; series mostly up to 114 µM.
Chain of UniProt P00811 (P00811 whole entry, looked up): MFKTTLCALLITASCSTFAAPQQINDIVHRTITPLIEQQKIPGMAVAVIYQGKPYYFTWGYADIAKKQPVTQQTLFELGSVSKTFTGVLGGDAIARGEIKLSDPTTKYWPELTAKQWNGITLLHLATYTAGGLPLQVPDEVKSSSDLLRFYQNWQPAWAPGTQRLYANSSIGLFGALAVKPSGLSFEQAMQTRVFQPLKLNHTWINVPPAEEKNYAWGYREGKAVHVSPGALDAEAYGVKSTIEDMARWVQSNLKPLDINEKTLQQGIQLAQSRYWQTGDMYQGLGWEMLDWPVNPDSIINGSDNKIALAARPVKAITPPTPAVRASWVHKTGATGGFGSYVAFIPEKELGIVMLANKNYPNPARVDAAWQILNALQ
Outline: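 20 mM phosphate pH 7.0 + 0.01% (detergent screen) or 0.0001% Triton X-100; 5.3 nM AmpC reagent; cpd preinc 15 min RT; nitrocefin (800 uM stock) to start; A480 q20 s × 4 min; Activity was normalised to no-enzyme and no-compound control wells.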
Further: nearly all actives have a fitted effect of over 25% in size.
Potency means the concentration at half of the fitted maximal effect; tags describe the fitted curve by direction and shape.

SMILES	Potency
CC(CN1CCCC1)OC(=O)c1cccc(F)c1 (stereo not given)	inactive
CC1CCCC(NC(=O)CCC(=O)NCc2ccccc2)C1C (stereo not given)	inactive
O=C(NCc1ccccc1)C(=O)NCC1OCCN1C(=O)c1ccc(Cl)cc1 (stereo not given)	inconclusive [inhibitor, full curve, poor fit]
COc1cc(C)c(/C=C(\C#N)C(=O)Nc2cccc(C)c2)cc1C(C)C	inconclusive [inhibitor, full curve]
COc1ccc(NC2=CC(=O)CC(c3ccccc3)C2)cc1 (stereo not given)	inconclusive [inhibitor, single point]
O=C(COC(=O)C1CCC1)NCCc1ccc(Cl)cc1Cl	inactive
CC(=O)O/N=C/c1c(N2CCOCC2)n(C)c2ccccc12	inactive
COc1ccccc1CNC1CCCc2ccccc21 (stereo not given)	inconclusive [inhibitor, partial curve]
CCCC(=O)Nc1nnc(SCC(=O)NCc2ccco2)s1	inconclusive [inhibitor, full curve, poor fit]
Cc1cccc(N2CCN(C(=O)CCc3nc4ccccc4[nH]3)CC2C)c1 (stereo not given)	inconclusive [inhibitor, full curve]
N#CC1=C(N)Oc2cc(O)ccc2C1c1cccnc1 (stereo not given)	inactive
COc1cccc(N2CC(C(=O)NC3CCCCC3)CC2=O)c1 (stereo not given)	inconclusive [inhibitor, full curve]
CCCCn1c(N)c(N(CC(C)C)C(=O)c2cccc(S(=O)(=O)N3CCN(C(C)=O)CC3)c2)c(=O)[nH]c1=O	inconclusive [inhibitor, full curve, poor fit]
CN(Cc1ccccc1)c1ccc2cc(S(=O)(=O)N3CCCCC3)ccc2n1	inactive
O=S(=O)(c1ccc2c(c1)OCCO2)N1CCN(c2nc3ccccc3s2)CC1	inconclusive [inhibitor, single point]
O=C(CSc1nnc(-c2csc3c2CCCC3)o1)Nc1ccccc1	inconclusive [inhibitor, partial curve, poor fit]
CC(C)OCC(O)CN1CCC(Cc2ccccc2)CC1 (stereo not given)	inactive
CS(=O)(=O)N1CCCC(C(=O)NCCc2ccccc2)C1 (stereo not given)	inconclusive [inhibitor, full curve, poor fit]
CCOC(=O)c1[nH]c2ccccc2c1NC(=O)c1ccc(S(=O)(=O)N(C)C)cc1	inconclusive [inhibitor, partial curve, poor fit]
CN(C)S(=O)(=O)c1cccc(NC(=O)c2cccc(S(=O)(=O)N3CCCCCC3)c2)c1	inactive
O=C1CC(c2ccccc2)Sc2ccccc2N1 (stereo not given)	inconclusive [inhibitor, partial curve, poor fit]
COc1cc(C(=S)N2CCOCC2)cc(Br)c1OS(=O)(=O)c1ccccc1	inconclusive [inhibitor, full curve, poor fit]
COc1cc(OC)cc(C(=O)NC(C(=O)OCn2nnc3ccccc3c2=O)C(C)C)c1 (stereo not given)	inconclusive [inhibitor, partial curve, poor fit]
CC(=O)Nc1cc[n+](C(C)C(=O)c2ccc(Cl)cc2)cc1 (stereo not given)	inconclusive [inhibitor, single point]

SMILES	Potency
CC(=O)c1c(C)[nH]c(C(=O)OCC(=O)c2c[nH]c3ccccc23)c1C	inactive
CCOC(=O)CSc1nc2ccccc2c(=O)n1CC1CCCO1 (stereo not given)	inconclusive [inhibitor, partial curve, poor fit]
O=C1CC(Nc2ccc(N3CCOCC3)cc2)C(=O)N1c1ccccc1 (stereo not given)	inactive
c1ccc(N2CCN(c3cnccn3)CC2)nc1	inconclusive [inhibitor, full curve, poor fit]
O=C1NC(=O)/C(=C\c2ccc(OCc3ccccc3)cc2)S1	inconclusive [inhibitor, single point]
COc1cc(C(=S)N2CCOCC2)ccc1OC(=O)c1cc(OC)c(OC)c(OC)c1	inconclusive [inhibitor, partial curve, poor fit]
Cc1ccc(NC(=O)c2ccc3c(c2)OCCO3)nc1	inactive
CCc1cc(=O)oc2c(C)c(O)c(CN3CCCCC3)cc12	inconclusive [inhibitor, partial curve, poor fit]
COc1ccc(CCNC(=O)c2ccc(SC)cc2OC)cc1	inactive
CCCCCC(=O)N1CCN(CCN=CC2=C(O)CC(c3ccco3)CC2=O)CC1 (stereo not given)	inconclusive [inhibitor, single point]
COc1cc(C(=O)N2CCC(C(=O)Nc3cccc(C(C)=O)c3)CC2)cc(OC)c1OC	inconclusive [inhibitor, full curve, poor fit]
COc1ccc(C(=O)NCc2ccccc2)cc1Br	inconclusive [inhibitor, single point]
CCOC(=O)N1CCC(C(=O)NNC(=O)c2ccc(Cl)cc2Cl)CC1	inactive
CCOP(=O)(c1ccccc1)C1(C#N)CC1 (stereo not given)	inconclusive [inhibitor, single point]
Cc1cccc(NC(=S)N2CCC(C(=O)c3ccc(F)cc3)CC2)c1C	inactive
N/C(=N\OC(=O)c1ccccc1Cl)c1ccncc1	inactive
Cc1cc(=O)n2c3ccccc3n(CC(O)CN3CCCC3)c2c1C#N (stereo not given)	inconclusive [inhibitor, full curve, poor fit]
CCCN(Cc1cccs1)C(=O)Nc1cc(C)cc(C)c1	inactive
Cc1cc(C)nc(OC(C(=O)O)C(OCc2ccccc2)(c2ccccc2)c2ccccc2)n1 (stereo not given)	inconclusive [inhibitor, full curve]
CCOC(=O)c1cc(/C(C)=N/OC(=O)c2ccc(C(C)(C)C)cc2)on1	inactive
CCOC(=O)c1c(N)n(-c2ccc(N)cc2)c2nc3ccccc3nc12	inconclusive [inhibitor, full curve, poor fit]
Cc1ccc(/C=C(/C#N)C(=O)NC(=O)Oc2ccccc2)cc1	inconclusive [inhibitor, full curve, poor fit]
COc1ccc(S(=O)(=O)N2Cc3ccccc3CC2C(=O)O)cc1 (stereo not given)	inconclusive [inhibitor, single point]
Cc1ccc(C)c(NC(=O)CSc2nccn2-c2cccc(C)c2C)c1	inactive

SMILES	Potency
COc1ccc(Sc2nc(-c3ccccn3)ncc2OC)cc1	inconclusive [inhibitor, full curve, poor fit]
O=C(O)CCn1[nH]c(=O)ccc1=O	inconclusive [inhibitor, single point]
COC(=O)NCC12CC3CC(C1)CC(CNC(=O)OC)(C3)C2	inconclusive [inhibitor, full curve, poor fit]
COC(=O)c1nc2n(n1)C(c1ccc([N+](=O)[O-])cc1)C(C(=O)Nc1ccc(Cl)cc1)=C(C)N2 (stereo not given)	inconclusive [inhibitor, full curve, poor fit]
O=C(NCc1ccncc1)C1COc2ccccc2O1 (stereo not given)	inconclusive [inhibitor, single point]
OC(COCc1ccccc1)CN1CCN(c2ccccc2F)CC1 (stereo not given)	inconclusive [inhibitor, single point]
Cc1noc(C(=O)Nc2ccc3c(c2)OCO3)c1Cl	inactive
CC(=O)Nc1ccc(NC(=O)c2nc(S(=O)(=O)Cc3ccc(F)cc3)ncc2Cl)cc1	inconclusive [inhibitor, single point]
O=C(N/N=C/c1cn(-c2ccccc2)nc1-c1cc2ccccc2o1)c1cccnc1	inactive
O=S(=O)(c1ccccc1Cl)N1CCC(O)(c2ccc3c(c2)OCO3)CC1	inconclusive [inhibitor, partial curve, poor fit]
O=C(Sc1cccc2cccnc12)c1ccccc1Br	inactive
Cc1ccc(-n2c(=O)[nH]cc(C(=O)N3CCc4ccccc43)c2=O)cc1C	inconclusive [inhibitor, full curve]
O=C(Nc1ccc2c(c1)OCCO2)c1ccc(Cl)cc1	inconclusive [inhibitor, full curve, poor fit]
CCOc1ccc(CCNC(=O)c2nnc(Cc3ccc(F)cc3)o2)cc1OCC	inconclusive [inhibitor, full curve, poor fit]
COc1cc(/C=C(\C#N)c2nc3ccc(C)cc3[nH]2)ccc1OCc1ccc(C)cc1	inactive
Cc1c(C(=O)NCc2ccc3c(c2)cc(C)n3C)cccc1[N+](=O)[O-]	inconclusive [inhibitor, partial curve, poor fit]
CCc1ccc(NC(=O)NNC(=O)c2ccc3ccccc3c2O)cc1	inactive
c1csc(-c2csc(-c3cccs3)n2)c1	inconclusive [inhibitor, full curve, poor fit]
[O-][N+]12CCCCC1CCCC2CO (stereo not given)	inconclusive [inhibitor, full curve, poor fit]
C=CCOC(=O)C1C(=O)CC(C)(O)C(C(=O)OCC=C)C1c1ccc(N(C)C)cc1 (stereo not given)	inconclusive [inhibitor, single point]
COc1ccc(Cl)cc1NC(=O)N1CCN(S(=O)(=O)c2ccc3c(ccn3C)c2)CC1	inconclusive [inhibitor, full curve, poor fit]
COc1ccc(-n2c(C)c([N+](=O)[O-])c3ccc(O)c(CN4CCCCC4)c32)cc1	inconclusive [inhibitor, full curve, poor fit]
